In the RNAGym collection of RNA variant scans (doi:10.7554/elife.90254):
Read counts are not given, so values of variants with three or more changes are uncertain.

B1: LINE1-full (parent)
chain: UACGUAGGUGGUUUUCCCCUGAUAGUGCUAAGGGGGCCUGGAAGUUUGGACUGGGCAGAGCUCAACACAGCGUGGCAAAGUGGCUGUGGCUAGACUGCCUCUCUGGAUUCCUCGUCACUCAGCAGGGCAUCUCUGAGAGAAAUGCC

Variants of: B1
Experiment: self-cleavage, relative activity (ratio to wild type); higher = more cleavage; in vitro, sequencing; the parent is a self-cleaving ribozyme

| Variant | self-cleavage |
| --- | --- |
| U15A G35A A140C | 0.65 |
| U15A G54A U104A | 0.11 |
| U15A G70A U100C U134A A140G | 0.38 |
| U15A G74A U85A A140G | 0.06 |
| U15A G75A A136G | 0.85 |
| U15A U20C U39G A77U | 1.47 |
| U15A U20C U73A G105A C118U U119G | 1.59 |
| U15A U20C U91C U96A U108C A142G U143C | 0 |
| U15A U23C A129G | 1.06 |
| U15A U23C C28U U39A | 0.64 |
| U15A U23C G54A A69G U130C A140C A142U U143A | 0 |
| U15A U23C U29C U81A U112A A142G | 1.23 |
| U15A U26C A69G A117U | 0 |
| U15A U26C A79G | 0 |
| U15A U26C U73C U115A | 0.28 |
| U15A U45C U47A | 0.71 |
| U15A U45G A59U A129G | 0.31 |
| U15A U46C A69G A124U A140G | 0.77 |
| U15A U46C A141G | 1.15 |
| U15A U47A U73C U119C | 0.88 |
| U15A U47A U119A U134C | 1.05 |
| U15A U47C G49A G70A G72U U91C | 0.05 |
| U15A U47G U52A U130C A140G | 1.2 |
| U15A U62C U119C A124U A140G A142G | 0 |

| Variant | self-cleavage |
| --- | --- |
| U15A U81A U102A | 1.46 |
| U15A U81C A129U | 0.32 |
| U15A U85C C99U | 0.14 |
| U15A U87C G126C | 0.3 |
| U15A U87C U108G | 0.35 |
| U15A U91A A142G | 0.52 |
| U15A U96A C123U | 0.04 |
| U15A U96C G97A | 0.09 |
| U15A U96G A141G | 0 |
| U15A U102A U108C A142G | 0.88 |
| U15A U102C U134C | 0 |
| U15A U108A A142G | 0.37 |
| U15A U112C A124G | 0.25 |
| U15A U112C U132C | 1.13 |
| U15A U119G G126U | 0.96 |
| U15C A22G A69G C90U | 0.05 |
| U15C A22G G40A A141G | 1.37 |
| U15C A22G U46A | 1.65 |
| U15C A22U A57G U81C U87A | 0.07 |
| U15C A22U C38U A65G U108A | 0.05 |
| U15C A22U U62C | 0.06 |
| U15C A24C C133G | 2.48 |
| U15C A24C U47C U85G | 0.84 |
| U15C A24G A42G A138G | 1.98 |

| Variant | self-cleavage |
| --- | --- |
| U15C A24G A42U | 0.46 |
| U15C A24G G35C U100C | 0.46 |
| U15C A24G U45C A124G | 0 |
| U15C A30G A42G A50U U102G U132C | 0 |
| U15C A30G A64U | 0.72 |
| U15C A30G U96C A138G | 0.89 |
| U15C A30G U104C | 0.51 |
| U15C A30G U112A A140U | 0.92 |
| U15C A30G U134G | 1.15 |
| U15C A30U A79G G137U | 0.67 |
| U15C A30U U115A | 0.9 |
| U15C A31G U100C A138G | 0.3 |
| U15C A31U A57G | 0 |
| U15C A31U A129U A141U | 0.49 |
| U15C A31U U62A | 0.08 |
| U15C A42G A64G | 0.66 |
| U15C A42G A141G | 0.86 |
| U15C A42G G114A | 1.59 |
| U15C A42G U115C | 2 |
| U15C A42U U52C A129U | 1.58 |
| U15C A42U U85C U132C A141G | 0.05 |
| U15C A43G A64C G70C | 0.08 |
| U15C A43G A64G G126A A138G | 0 |
| U15C A43G U119C | 1.88 |

| Variant | self-cleavage |
| --- | --- |
| U15C A43U U46C A50G U62C G106U | 0.36 |
| U15C A43U U73A U102C | 0.95 |
| U15C A50G A107G | 1.62 |
| U15C A50G G55A A79U | 0.1 |
| U15C A50G U62C | 0.06 |
| U15C A50G U104C A121U | 1.45 |
| U15C A50U U96C | 0.08 |
| U15C A57G A78G U104C | 0.37 |
| U15C A57G A117G | 0.5 |
| U15C A57U A67G | 0.19 |
| U15C A59G C71U U108C A141C | 0.14 |
| U15C A59G G126A | 0.21 |
| U15C A59G U112A | 0.08 |
| U15C A59U U134A | 1.19 |
| U15C A64C G72U A136G | 0.28 |
| U15C A64U A142G | 0.58 |
| U15C A64U C71U U87C A138U | 0.2 |
| U15C A65G A92U A142G | 0.08 |
| U15C A65G A136U | 0.07 |
| U15C A65G U73A | 0.05 |
| U15C A65G U102A | 0 |
| U15C A65G U132C | 0 |
| U15C A67G A94G | 0 |
| U15C A67G U85C | 0.26 |

| Variant | self-cleavage |
| --- | --- |
| U15C A67G U104C U109A A141G | 0 |
| U15C A69C A124G | 0.08 |
| U15C A69G A79U | 0.44 |
| U15C A69G A129U A141G | 0.3 |
| U15C A69G U73A | 0.3 |
| U15C A77G A124U | 2.86 |
| U15C A79U A141U | 0.7 |
| U15C A92G U134C | 0.08 |
| U15C A94U U112C A142G | 0.2 |
| U15C A107G U112C | 1.82 |
| U15C A107G U134C A142G | 1.31 |
| U15C A117C A142G | 1.87 |
| U15C A117U A142G | 2.15 |
| U15C A117U U134A | 0.96 |
| U15C A121G G126A | 1.87 |
| U15C C17G U39C U100C | 0.59 |
| U15C C17U G55A C120U U143C | 0.81 |
| U15C C18U U96A U119C | 0.15 |
| U15C C19U A30U | 0.98 |
| U15C C19U A42G | 1.29 |
| U15C C19U A42G U45C A59G U108C | 0 |
| U15C C19U C37G A129G | 1.56 |
| U15C C19U C84U C103A | 0.21 |
| U15C C19U U96C | 0.24 |

| Variant | self-cleavage |
| --- | --- |
| U15C C19U U119A | 0.82 |
| U15C C37U U45C U102A | 0.85 |
| U15C C38A C51U U96C U115C A124G | 0 |
| U15C C38A U47C | 1.9 |
| U15C C38U A50G A59G A107G U134A | 0 |
| U15C C56A U119C | 0.25 |
| U15C C56U U96C U102C U115C | 0.08 |
| U15C C63A A64G C66G U102C | 0.12 |
| U15C C123U A140U | 1.48 |
| U15C G25U U115C | 1.05 |
| U15C G32A U96A G144A C145U | 0.02 |
| U15C G32A U134A | 0.57 |
| U15C G32U U46C U100C | 2.26 |
| U15C G33U A67G C128U | 0.69 |
| U15C G33U U39A U115A | 2.44 |
| U15C G34A U62A U130C | 0 |
| U15C G35A A69G A92G A136U A142C | 0 |
| U15C G36A A42G A64G A136G | 0.47 |
| U15C G36A U62C C103A | 0.03 |
| U15C G36U U87C U115G | 0.07 |
| U15C G48A U112C | 1.04 |
| U15C G49C U130C | 2.42 |
| U15C G53A G60A A94G | 0.02 |
| U15C G54U U115G | 0.58 |

| Variant | self-cleavage |
| --- | --- |
| U15C G55A A79G A138G | 0.27 |
| U15C G55C A59U G88A U112C A136U U143C | 0.02 |
| U15C G58U A65U U85A G125U | 0.04 |
| U15C G70U A121G U130C A138G | 0.06 |
| U15C G70U A129G | 0.13 |
| U15C G72A U73C A129C | 2.45 |
| U15C G72A U108C | 1.98 |
| U15C G72A U115C | 1.96 |
| U15C G74A A77G U87C A121U A142U | 0.3 |
| U15C G75A G89U U115C A124U | 0.03 |
| U15C G75C A141C | 0.45 |
| U15C G75U U85C U91A | 0.17 |
| U15C G82A A121G | 2.09 |
| U15C G88A A117U | 0.06 |
| U15C U20A G35A C51U A59G U62C A124G | 0.13 |
| U15C U20A U108C A136G | 2.3 |
| U15C U20C A22G A117G | 2.63 |
| U15C U20C A57G A65G | 0 |
| U15C U20C A69G A140G | 0.58 |
| U15C U20C G21A A107G U115C | 0 |
| U15C U20C G21A U62C U108C U134A | 0.19 |
| U15C U20C U39A A141G | 1.17 |
| U15C U20C U85C C101A A136G A140U | 0.17 |
